{"source": "PubChem BioAssay AID1347071", "about": "(National Center for Advancing Translational Sciences (NCATS), 2019)", "note": "Out of some 410,000 compounds screened, about 260 (0.063%) were called active. Inconclusive results, whose numbers are uncertain, are shown with a selection of clear calls. Calls come from the whole dose curve; as a rule, active = well fitted activation curve with a large enough effect; inconclusive = small, poorly fitted or top-dose-only effect; inactive = no such curve, though single readings can be large or run the other way. Potencies of inconclusive entries are left out as doubtful fits.", "data": [{"assay": "qHTS for compounds that reverse cellular toxicity of Amyloid beta (A-beta) peptide in yeast: Primary Screen; note: nearly all actives have a fitted effect of over 55% in size; note: potency is the fitted concentration of half-maximal effect; tags give direction and shape of the fitted curve", "details": "yeast expressing A-beta42, growth rescue, OD600, 48 h; growth rescue: at 46.1 µM (top of the series), 0% DMSO, 100% iron-clioquinol control", "how_it_was_run": "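Growth rescue measured by 600 nm absorbance after 48 h yeast culture at 30 C with compound. Values normalized between DMSO and an equimolar ferric chloride plus clioquinol control.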", "values": [{"molecule": "CCOc1ccc(/C=N/NC(=S)NC2CC3CCC2C3)cc1", "note": "(stereo not drawn)", "Potency": "inconclusive [activator, partial curve]"}, {"molecule": "CN1C(=S)N(c2cccnc2)C(=O)/C1=C\\c1ccc(C(C)(C)C)cc1", "Potency": "inactive"}, {"molecule": "O=C(NCCc1ccc(C(F)(F)F)cc1)C1COc2ccccc2O1", "note": "(stereo not drawn)", "Potency": "inconclusive [activator, single point]"}, {"molecule": "CCCSc1ccc([C@@H]2[C@@H]3C(=O)N(CC)C(=O)[C@@H]3[C@]3(C(=O)OC)CCCCN23)cc1", "Potency": "inconclusive [activator, single point]"}, {"molecule": "CN(C)/C=C/C(=O)c1ccc(S(=O)c2ccccc2)cc1", "note": "(stereo not drawn)", "Potency": "inconclusive [activator, partial curve, poor fit]"}, {"molecule": "CCCCCC(=O)NC(=S)NC1C2CC3CC(C2)CC1C3", "note": "(stereo not drawn)", "Potency": "inconclusive [activator, full curve, poor fit]"}, {"molecule": "Cc1cccc(-c2nc(CS(=O)CC(=O)NC3CCCC3)c(C)o2)c1", "note": "(stereo not drawn)", "Potency": "inactive"}, {"molecule": "C/C(=N\\NC(=S)NC1CCCCC1)c1cccs1", "Potency": "inconclusive [activator, partial curve, poor fit]"}, {"molecule": "NC(Cc1ccc(C(F)(F)F)cc1)c1csc(NC(=O)NCCc2ccccc2)n1", "note": "(stereo not drawn)", "Potency": "inactive"}, {"molecule": "Cc1cc(/C=N/NC(N)=S)c(C)n1-c1cccc(Cl)c1", "Potency": "active: 10 µM"}, {"molecule": "Clc1ccc(OCCn2cnc(Cl)c2Cl)cc1", "Potency": "inconclusive [activator, single point]"}, {"molecule": "Cc1ccc(C(=O)N2CCN(S(=O)(=O)c3ccc(C(C)C)cc3)CC2)s1", "Potency": "inconclusive [activator, partial curve, poor fit]"}, {"molecule": "OC[C@@H]1[C@@H](c2ccccc2)C(c2ccccc2)=NN1c1ccccc1", "Potency": "inconclusive [activator, single point]"}, {"molecule": "Cc1nc(Oc2ccccc2)c2ccsc2n1", "Potency": "inactive"}, {"molecule": "CC(C)(C)OC(=O)N[C@@H](Cc1ccccc1)C(=O)N[C@@H](CO)[C@H](O)[C@@H]1C[C@@H]1C(=O)N1CCCC1", "Potency": "inconclusive [activator, partial curve]"}, {"molecule": "Cc1ccc(-c2csc(=S)[nH]2)cc1", "Potency": "inconclusive [activator, partial curve, poor fit]"}, {"molecule": "Clc1ccc(SCc2cc(N3CCOCC3)nc(-c3ccccn3)n2)cc1", "Potency": "active: 12.6 µM"}, {"molecule": "CCCc1nnc(NC(=O)CCS(=O)(=O)Cc2ccccc2)s1", "Potency": "inconclusive [activator, single point]"}, {"molecule": "Cc1ccc(NC(=O)CN2C(=O)S/C(=C\\c3cc(C)n(C)c3C)C2=O)cc1", "Potency": "inactive"}, {"molecule": "Cc1ccc(CN2C(=O)CC(c3ccc(Cl)cc3)c3c(C)nn(-c4nc(C)cc(C)n4)c32)cc1", "note": "(stereo not drawn)", "Potency": "inconclusive [activator, single point]"}, {"molecule": "CCC(Oc1ccccc1)C(=O)Nc1ccc(-c2nnc(-c3ccco3)o2)cc1", "note": "(stereo not drawn)", "Potency": "inconclusive [activator, single point]"}, {"molecule": "O=[N+]([O-])c1cc(Cl)cc(C2=NCCN2)c1", "Potency": "inconclusive [activator, partial curve]"}, {"molecule": "CCc1ccc(CN(C)Cc2nc(-c3cccc(Cl)c3)no2)nc1", "Potency": "inconclusive [activator, single point]"}, {"molecule": "COc1cc(C)ccc1OCCSc1nc2ccc(NC(=O)c3ccccc3F)cc2s1", "Potency": "inactive"}, {"molecule": "Cc1ccc(S(=O)(=O)n2nccc2-c2c(-c3ccccc3)noc2C)cc1", "Potency": "inactive"}, {"molecule": "O=[N+]([O-])c1ccc(N2CCN(c3ccccc3O)CC2)c(Cl)c1", "Potency": "inactive"}, {"molecule": "O=C(C1=C[C@H](C2CCCCC2)C[C@H](OCc2ccc(CO)cc2)O1)N1CCN(Cc2ccc3c(c2)OCO3)CC1", "Potency": "inconclusive [activator, single point]"}, {"molecule": "O=C(c1ccc(-c2cccc(C(F)(F)F)c2)o1)N1CCN(c2ccccc2O)CC1", "Potency": "inconclusive [activator, partial curve, poor fit]"}, {"molecule": "CC(=O)N(c1ccc2oc(=O)sc2c1)S(=O)(=O)c1cccs1", "Potency": "inactive"}, {"molecule": "Oc1oc(-c2cccc3ccccc23)nc1/C=N/c1nccs1", "Potency": "inconclusive [activator, single point]"}, {"molecule": "COC(=O)c1cc(C)nc(Sc2ccccc2N)n1", "Potency": "inconclusive [activator, partial curve]"}, {"molecule": "COc1ccc(/C=C(\\C)C(=O)c2c(C)cc(C)[nH]c2=O)cc1", "Potency": "inactive"}, {"molecule": "CCC(C)NC(=S)Nc1ccc(F)cc1", "note": "(stereo not drawn)", "Potency": "inconclusive [activator, single point]"}, {"molecule": "COc1cc(OC)c2cc[nH]c2c1", "Potency": "inconclusive [activator, single point]"}, {"molecule": "COC(=O)c1cn(CCOc2ccccc2)c2ccccc12", "Potency": "inconclusive [activator, partial curve]"}, {"molecule": "Oc1ccc(Cl)cc1C(C#Cc1ccccc1)N1CCOCC1", "note": "(stereo not drawn)", "Potency": "inconclusive [activator, partial curve, poor fit]"}, {"molecule": "COCCNC(=O)[C@@H]1CSC2c3ccccc3C(=O)N21", "note": "(stereo partly drawn)", "Potency": "inactive"}, {"molecule": "CCOC(=O)[C@]12CCCC=C1N(CCC1=CCCCC1)C(=O)[C@H](CC(=O)NCc1cccc3ccccc13)C2", "Potency": "inconclusive [activator, partial curve, poor fit]"}, {"molecule": "Oc1ccc(C[C@@H]2CNC(=S)N2CCCCC2CCCCC2)cc1", "Potency": "inconclusive [activator, single point]"}, {"molecule": "O=C(COc1ccc(-c2ccccc2)cc1)N1CCN(C(=O)c2cccs2)CC1", "Potency": "inconclusive [activator, single point]"}, {"molecule": "Cc1cccc(C(=O)NC(=S)N(C)C2CCCCC2)c1", "Potency": "inconclusive [activator, partial curve, poor fit]"}, {"molecule": "S=C(Nc1cccc2ccccc12)N1CCN(c2ncccn2)CC1", "Potency": "inconclusive [activator, partial curve, poor fit]"}, {"molecule": "COC(=O)C1C(=O)c2c([nH]c(C(=O)OC3CCCC3)c2C)CC1C", "note": "(stereo not drawn)", "Potency": "inconclusive [activator, partial curve, poor fit]"}]}]}
